# From PubChem BioAssay AID2147 (National Center for Advancing Translational Sciences (NCATS), 2009)
# Out of some 230,000 compounds screened, about 3,600 (1.6%) were called active. Inconclusive means that the source gave no clear call. Such entries were picked first, then a sample of the others. Calls follow the shape of the dose curve; as a rule, active = well fitted inhibition curve with a large enough effect (not every such curve was filed as active); inconclusive = small, poorly fitted or top-dose-only effect, or another doubt; inactive = no such curve, though single readings can be large or run the other way. Potencies beside an inconclusive call are fits to weak or partial responses and may not hold up.
# Target: Lysine-specific demethylase 4E (Homo sapiens) (UniProt B2RXH2)
# Sequence of UniProt B2RXH2 (B2RXH2 whole entry, looked up, the tested form may be a part): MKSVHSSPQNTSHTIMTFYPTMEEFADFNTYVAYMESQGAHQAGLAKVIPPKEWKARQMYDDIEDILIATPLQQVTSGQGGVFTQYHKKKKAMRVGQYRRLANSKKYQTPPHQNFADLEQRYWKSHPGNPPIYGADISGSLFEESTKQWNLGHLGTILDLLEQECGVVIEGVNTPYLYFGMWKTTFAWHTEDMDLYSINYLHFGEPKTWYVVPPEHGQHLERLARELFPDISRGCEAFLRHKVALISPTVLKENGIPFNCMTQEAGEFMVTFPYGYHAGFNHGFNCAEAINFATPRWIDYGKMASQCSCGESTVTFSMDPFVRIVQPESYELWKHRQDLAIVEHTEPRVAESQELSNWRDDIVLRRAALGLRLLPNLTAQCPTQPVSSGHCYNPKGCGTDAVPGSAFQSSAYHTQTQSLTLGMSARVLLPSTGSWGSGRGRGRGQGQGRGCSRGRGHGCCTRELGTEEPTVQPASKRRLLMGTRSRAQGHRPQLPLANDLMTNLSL
# Assay: qHTS Assay for Inhibitors of Human Jumonji Domain Containing 2E (JMJD2E)
# Details: JMJD2E catalytic domain, FDH-coupled NADH fluorescence (FDH is formaldehyde dehydrogenase); series mostly up to 57.1 µM
# Also: nearly all actives have a fitted effect of over 50% in size.
# Potency is read from the fitted curve at half-maximal effect; tags tell the direction and shape of the fitted curve.
row,Compound,Potency
1,O=C(Cc1cccs1)Nc1cccc(-c2nc3cc4ccccc4cc3[nH]2)c1,"inconclusive: 28.2 µM [inhibitor, partial curve]"
2,O=c1cc(CN2CCN(c3ccccn3)CC2)nc2sccn12,"inconclusive: 39.8 µM [inhibitor, single point]"
3,C(=C\c1ccccc1)/C=N/Nc1nc2ccccc2s1,"inconclusive: 31.6 µM [inhibitor, single point]"
4,COc1cc2c(C=O)c3c4c(cc(OC)c(OC)c4c2cc1OC)CCN3C,"inconclusive: 1.58 µM [inhibitor, full curve]"
5,c1ccc2[nH]c(SCc3cn4ccccc4n3)nc2c1,inactive
6,CCOC(=O)c1ccc(Oc2cc(C)nc(Cl)n2)cc1,inactive
7,CCn1c(SCC(=O)c2ccc(C)cc2)nnc1-c1ccncc1,inactive
8,CC1CCCCC1NC(=O)COC(=O)COc1ccccc1Cl (configuration not stated),inactive
9,CCN(CC)CCN(Cc1cc2cc3c(cc2[nH]c1=O)OCCO3)C(=O)NC1CCCCC1,"inconclusive: 28.2 µM [inhibitor, partial curve]"
10,Cc1ccc2nc(Nc3nc(=O)c4ccccc4n3C)nc(C)c2c1,"inconclusive: 25.1 µM [inhibitor, single point]"
11,Cc1ccc(S(=O)(=O)NC(C(=O)Oc2ccc3c(C)c(Cl)c(=O)oc3c2)c2ccccc2)cc1 (configuration not stated),"inconclusive: 28.2 µM [inhibitor, partial curve]"
12,Cc1ccc(CSc2sc(C(=O)c3ccccc3)c(N)c2C#N)cc1,"inconclusive: 39.8 µM [inhibitor, single point]"
13,Cc1cc(C(=O)N2CCN(c3ncccc3C#N)CC2)no1,"inconclusive: 31.6 µM [inhibitor, partial curve]"
14,c1ccc2c3c(c(CN4CCCCC4)cc2c1)COC3,"inconclusive: 28.2 µM [inhibitor, single point]"
15,O=C(C1=NN[C@@H]2C(=O)N(c3cccc(F)c3)C(=O)[C@H]12)C(c1ccccc1)c1ccccc1,inactive
16,C[n+]1nc(Nc2ccccc2)sc1-c1ccc(C(=O)O)cc1,"inconclusive: 28.2 µM [inhibitor, partial curve]"
17,CCOc1cc(C=O)ccc1OCC(=O)NC(C)(C)C,inactive
18,N#Cc1c(-c2ccccc2)nc2n(-c3ccccc3)nc(C(=O)Nc3ccccc3)n2c1=O,"inconclusive: 20 µM [inhibitor, partial curve]"
19,COc1cccc(CNc2ccc3c(c2)ncn3C(C)C)c1OC,"inconclusive: 28.2 µM [inhibitor, partial curve]"
20,COc1cc2c(cc1NC(=O)Cc1ccc(C)cc1)oc1ccccc12,"inconclusive: 35.5 µM [inhibitor, single point]"
21,C[C@@H]1CC=C[C@H]2[C@H]1C(=O)N(Cc1ccccc1)[C@H]2c1ccc(/C=C/c2ccccc2)cc1F,"inconclusive: 31.6 µM [inhibitor, partial curve]"
22,CCOC(=O)CCCCC(=O)c1[nH]c(=O)[nH]c1CSc1nc(-c2ccccc2)c(C#N)c(=O)[nH]1,inactive
23,CCCCSc1nc2[nH]ncc2c(=O)[nH]1,inactive
24,C/C(CC(=O)Nc1ccccn1)=N\NC(=O)c1ccc(C)cc1,"inconclusive: 3.98 µM [inhibitor, full curve]"
25,CCN1/C(=C/c2ccc3cccc(C)c3[n+]2CC)Sc2ccccc21,inactive
26,O=C(Nc1ccc(N2CCOCC2)cc1)c1ccc([N+](=O)[O-])cc1,inactive

row,Compound,Potency
1,OCCCc1nc2n(n1)C(c1cccs1)C=C(c1ccc(Br)cc1)N2 (configuration not stated),"inconclusive: 25.1 µM [inhibitor, partial curve]"
2,COc1ccccc1C(=O)NCC1CCN(c2ccc(S(=O)(=O)N3CCOCC3)cc2)CC1,"inconclusive: 35.5 µM [inhibitor, single point]"
3,CC(C)N(C(=O)Nc1ccc2nccnc2c1)C(C)C,"inconclusive: 22.4 µM [inhibitor, partial curve]"
4,Cc1ccc(Oc2nc3ccccn3c(=O)c2/C=C(\C#N)C(=O)Nc2c(C)n(C)n(-c3ccccc3)c2=O)cc1,"inconclusive: 35.5 µM [inhibitor, single point]"
5,O=[N+]([O-])c1ccc(N2CCN(C(=S)Nc3ccc(F)cc3F)CC2)cc1,inactive
6,COc1ccccc1C(=O)NNC(=S)NC(=O)c1cc(OC)c(OC)c(OC)c1,"inconclusive: 39.8 µM [inhibitor, single point]"
7,CCn1c(SCC(=O)Nc2ccc3c(c2)oc2ccccc23)nnc1-c1ccc(N)cc1,inactive
8,O=C(Nc1nc2ccccc2s1)c1ccc2c(c1)OCO2,"inconclusive: 35.5 µM [inhibitor, single point]"
9,O=C(Nc1ccc(CN2CCOCC2)cc1)c1ccc(-c2cc(Cl)ccc2Cl)o1,"inconclusive: 28.2 µM [inhibitor, single point]"
10,O=C(O)c1cc(-c2ccco2)nc2cc3ccccc3cc12,"inconclusive: 28.2 µM [inhibitor, partial curve]"
11,COc1ccc(C2=NC(=O)NC2c2ccc(OC)cc2)cc1 (configuration not stated),"inconclusive: 31.6 µM [inhibitor, partial curve]"
12,CCOC(=O)C1(Cc2cccc(OC)c2)CCN(Cc2cccn2-c2nccs2)CC1,inactive
13,CCOC(=O)C1CCCN(c2nc3ccccc3nc2C(C#N)C(=O)OCC)C1 (configuration not stated),"inconclusive: 31.6 µM [inhibitor, single point]"
14,Cc1c(Cl)cccc1NC(CC(=O)c1ccccc1)C(=O)O (configuration not stated),inactive
15,CCc1ccccc1NCC(=O)Nc1ccccc1C(=O)OC,inactive
16,COc1ccc(CN2CCN(Cc3nc4ccccc4s3)CC2CCO)c(C)c1C (configuration not stated),inactive
17,C(=Nc1ccc(Nc2ccccc2)cc1)c1ccc2ccccc2c1,inactive
18,Cc1ccc(S(=O)(=O)N2CCN(C(=O)N(C)C)CC2)cc1,inactive
19,O=C(NCc1ccco1)c1cccs1,inactive
20,CN(C)CCCN(C(=O)c1ccc2c(c1)CCCC2)c1nc2c(F)cccc2s1,inactive
21,CCOc1ccc(NS(=O)(=O)c2ccc(NC(C)=O)c(OC)c2)cc1,inactive
22,O=C(CSc1nc(-c2cccs2)cc(C(F)(F)F)n1)NCCCN1CCOCC1,"inconclusive: 35.5 µM [inhibitor, single point]"
23,COc1ccc(CNC(=O)C(C#N)c2nc3ccccc3nc2N2CCCC2)cc1 (configuration not stated),"inconclusive: 3.55 µM [inhibitor, single point]"
24,CCC1CN2CCC1CC2[C@@H](NC(=S)Nc1cc(C(F)(F)F)cc(C(F)(F)F)c1)c1cccc2ccc(OC)cc12 (some centres not stated),inactive
25,Cc1cccn2c(=O)c3cc(C(=O)N4COCC4(C)C)n(C)c3nc12,"inconclusive: 35.5 µM [inhibitor, single point]"
26,CCc1nnc(NS(=O)(=O)c2ccc(N/C=C\C(=O)c3ccc(F)cc3)cc2)s1,"inconclusive: 39.8 µM [inhibitor, single point]"

row,Compound,Potency
1,O=C(NCc1ccccc1)c1ccc(Cl)cc1[N+](=O)[O-],inactive
2,COc1ccc(OCC(=O)N/N=C2\CCCCc3ccccc32)cc1,inactive
3,COC1CCN(C(=O)CC2C(=O)NCCN2CC2CCCCC2)CC1 (configuration not stated),"inconclusive: 25.1 µM [inhibitor, partial curve]"
4,COC(=O)c1cc(OC)c(OC)cc1NC(=O)CC1CCCCC1,"inconclusive: 39.8 µM [inhibitor, single point]"
5,CCOC(=O)/C(C#N)=C/C=C1/C=CC=CN1C,inactive
6,COCCn1c(=O)[nH]c2cc(C(=O)NCc3cccnc3)ccc2c1=O,"inconclusive: 25.1 µM [inhibitor, partial curve]"
7,Cc1ccc(-c2c(C(=O)NCc3ccccc3)oc(=O)c3ccccc23)cc1,inactive
8,Nc1cccc(-n2nnnc2CN2CCOCC2)c1,inactive
9,Cc1ccc(-c2nnn(CC(=O)N(Cc3ccccc3F)C(C(=O)NC3CCCC3)c3ccncc3)n2)o1 (configuration not stated),inactive
10,CC(C)CC1NC(=O)N(CC(=O)c2ccc3c(c2)OCCO3)C1=O (configuration not stated),"inconclusive: 35.5 µM [inhibitor, single point]"
11,COc1ccc(Nc2nc(Cl)nc(NCc3ccco3)n2)c(OC)c1,inactive
12,O=C(Nc1ccccc1NC(=O)c1csnn1)c1csnn1,inactive
13,Cc1ccc(NC(=O)C2CCN(C(=O)NC3CCCCC3)CC2)cc1,"inconclusive: 25.1 µM [inhibitor, single point]"
14,COc1ccc(C(=O)/C=C/c2ccc(O)cc2)cc1,inactive
15,CC(=O)Nc1ccc(C(=O)N/N=C/c2ccccc2OCc2ccccc2)cc1,"inconclusive: 39.8 µM [inhibitor, single point]"
16,CCN(CC)c1ccc(NC(=O)c2ccccc2Br)cc1S(=O)(=O)Nc1ccccc1OC,inactive
17,COc1ccc(Nc2ncc(C(=O)N3CCN(Cc4ccccc4)CC3)c3ccccc23)cc1,"inconclusive: 35.5 µM [inhibitor, single point]"
18,O=C(CCCCn1c(=S)[nH]c2ccsc2c1=O)NCc1ccco1,inactive
19,CCOCCCNc1nc2c(-c3ccccc3)nnn2c2ccccc12,"inconclusive: 14.1 µM [inhibitor, partial curve]"
20,CCN(CC)C(=O)c1sc(N)c(C#N)c1C,inactive
21,CCc1cc(SC#N)cc(C)c1NC(=O)CCl,inactive
22,O=C(CN1CCCC1)Nc1c(C(=O)C2CC2)oc2ccccc12,"inconclusive: 31.6 µM [inhibitor, single point]"
23,COc1ccc(/C(O)=C2/C(=O)C(=O)N(CCN(C)C)C2c2cccnc2)cc1OC (configuration not stated),"inconclusive: 39.8 µM [inhibitor, single point]"
24,O=C1NCCN/C1=C\C(=O)c1ccc(Cl)cc1,inactive
25,N#C/C(=C/c1ccc(N2CCOCC2)o1)C(=O)NC1CCCCC1,"inconclusive: 39.8 µM [inhibitor, single point]"
